Reference: PubChem BioAssay (NCI)
Where “and” joins values, the source holds several entries; their conditions need not be identical. Equal entries are not always repeated.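 In this assay, cells in 96-well plates receive the compound at five concentrations for 48 hours. Endpoints are linearly interpolated between the surrounding concentrations. The concentration for 50% growth inhibition is given as GI50. TGI: total growth inhibition.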

These compounds were tested on NCI-H322M lung (assay: DTP human tumour cell line panel, 48 h).
Compound `c1ccc(-c2c(-c3[nH]c4ccccc4c3-c3ccccc3)[nH]c3ccccc23)cc1` has a TGI of 15.9 µM.
With `COc1cc(/C=C2\C(=O)N(C)c3ccccc32)cc(OC)c1OC` the GI50 was 23.4 µM and the TGI was 75.9 µM.
For `CC(=O)OCC1OC(n2c(=S)n(-c3ccccc3)c(=O)c3cc(Br)cc(Br)c32)C(OC(C)=O)C(OC(C)=O)C1OC(C)=O` (configuration not stated), the TGI was greater than 100 µM.
With `COc1ccc2c(c1)[n+](=O)c(C(C)=O)c(C)n2[O-]` the TGI was greater than 100 µM.
For `CCOC(=O)c1cn(CC)c2ccc3c(c2c1=O)S(=O)(=O)C=C3`, the TGI was greater than 100 µM.
`CSc1nc[nH]c1C(N)=S` gave a TGI greater than 100 µM.
With `CC1CCCN1CCCOC(=O)c1ccc(OC2C=CCCC2)cc1` (configuration not stated) the TGI was greater than 100 µM.
`COc1ccc(/C(C)=C(\c2ccc(Cl)cc2)c2ccc(OCCN3CCCCCC3)cc2)cc1F` gave a GI50 of 5.52 µM and a TGI greater than 16.7 µM.
In the case of `NC(N)=NCCCC(NC(=O)c1c2ccccc2nc2ccccc12)C(=O)O` (configuration not stated), the TGI is reported as greater than 100 µM.
For `NC(=O)c1ncn(C2OC(CO)C(O)C2O)c1N` (configuration not stated), the GI50 was greater than 100 µM and the TGI was greater than 100 µM.
With `NC(N)=N/N=C(/c1ccccc1)c1ccccc1F` the GI50 was 9.71 µM and the TGI was greater than 58.8 µM.
For `NNC(=O)N/N=C1\CN(c2ccc(Cl)cc2Cl)C(=O)C(=O)C1c1nc2ccccc2o1` (configuration not stated), the TGI was greater than 100 µM.
`COc1ccc(CC[N+]2(C)COc3cc4oc(=O)cc(C)c4cc3C2)cc1OC` (configuration not stated) was tested, and the TGI was greater than 100 µM.
Compound `COc1cccc(CCCNC(=O)Cc2ccccc2CO)c1` has a TGI greater than 100 µM.
`COC(=O)c1ccccc1C1CN=NC12Cc1c(C)ccc(C)c1C2=O` (configuration not stated) showed a TGI greater than 100 µM.
In the case of `C=C(Cn1c2ccccc2c(=O)c2ccccc21)c1ccc(C(=O)Nc2ccccc2N)cc1`, the GI50 is reported as greater than 100 µM and the TGI is reported as greater than 100 µM.
With `CN(C)C(=O)Oc1ccc(C(=S)Nc2ccccc2)cc1` the TGI was greater than 100 µM.
Work on `O=c1nc2[nH]c3c(-c4n[nH]c(=O)[nH]c4=O)cccc3c2n[nH]1` yielded a GI50 greater than 100 µM and a TGI greater than 100 µM.
Work on `OCC#Cc1ccccc1C#Cc1ccc(C#Cc2ccccc2)cc1` yielded a GI50 of 18.9 µM and a TGI of 39.9 µM.
With `S=c1[nH]n2c(COc3cc(Cl)c(OCc4nnc5sc(=S)[nH]n45)cc3Cl)nnc2s1` the TGI was greater than 100 µM.
Work on `Clc1ccc2c(NCCCN3CCN(c4nc(N5CCOCC5)nc5ccccc45)CC3)ccnc2c1` yielded a GI50 of 2.22 µM and a TGI of 4.92 µM.
For `CC1=CCN(c2ccccn2)OC1c1ccccc1` (configuration not stated), the TGI was greater than 100 µM.
`COc1ccc(C23OCC(Cc4cc(OC)c(OC)cc42)C3CO)cc1OC` (configuration not stated) was tested, and the TGI was greater than 100 µM.
Compound `O=c1c2cc(I)ccc2nc(-c2cccs2)n1O` has a TGI of 80.6 µM.
`Cn1ccnc1C(=O)/C=C/c1ccc(C(=O)Nc2c(F)c(F)c(F)c(F)c2F)cc1` showed a GI50 of 1.52 µM and a TGI of 3.03 µM.
Work on `N#CCCN(CCC#N)c1ccc(C=Nc2ccc(F)cc2)cc1` yielded a TGI greater than 100 µM.
With `CN(C)c1ccc(C2CC(C)(O)Oc3cc4c(cc32)OCO4)cc1` (configuration not stated) the TGI was greater than 100 µM.
In the case of `CC1OC(OC2C(O[C@H]3CC[C@@]4(C)C(=CC[C@H]5[C@@H]6C[C@@H]7O[C@]8(CC[C@@H](C)CO8)[C@@H](C)[C@@H]7[C@@]6(C)CC[C@@H]54)C3)OC(CO)C(OC3OC(CO)C(O)C3O)C2O)C(O)C(O)C1O` (some centres not stated), the GI50 is reported as 0.59 µM and the TGI is reported as 2.11 µM and 1.8 µM.
Work on `Fc1ccc(-c2nn3c(COc4ccc(Cl)cc4)nnc3s2)cc1Oc1ccccc1` yielded a GI50 of 36.9 µM and a TGI greater than 72.2 µM.
`CC(=O)NN(c1ccccc1)C1CCN(c2ccccc2)N1C(C)=O` (configuration not stated) gave a TGI greater than 10 µM.
In the case of `COc1ccc(N=Nc2c(N)nn3c(SC)c(C#N)c(N)nc23)cc1`, the TGI is reported as 28.8 µM.
`CC1=C2[C@@H](CC1)[C@]1(C)O[C@@](C3CC3)(C[C@H]1OC(=O)CO)[C@H]2OC(=O)/C=C/c1ccccc1` gave a GI50 of 16.7 µM and a TGI of 33.4 µM.
For `Oc1ccccc1C=Nc1nc(OCc2ccccc2)nc2[nH]ncc12`, the GI50 was 18.1 µM and the TGI was 50.4 µM.
For `Cc1ccnc(Nc2ccc([N+](=O)[O-])c(NCCN3CCOCC3)n2)c1`, the GI50 was 0.0505 µM and 0.0463 µM and the TGI was 69.3 µM.
`O=C(O)/C=C/c1ccncc1` was tested, and the TGI was greater than 100 µM.
`CC(CC=O)Nc1nn2c(=O)c3ccccc3nc2s1` (configuration not stated) gave a TGI greater than 100 µM.
With `c1cncc([O][Ge]([O]c2cccnc2)([O]c2cccnc2)[O]c2cccnc2)c1` the GI50 was greater than 100 µM and the TGI was greater than 100 µM.
With `CC(C)[C@@H]1NC(=O)[C@@H]2N=C(O[C@H]2C)[C@H](C(C)C)NC(=O)C2N=C1O[C@H]2C` the TGI was greater than 100 µM.
For `CC(C)=CCc1c2c(c(O)c3c(=O)c4c(oc13)-c1ccc(O)cc1OC4C=C(C)C)C=CC(C)(C)O2` (configuration not stated), the TGI was 29.1 µM.
Work on `O=C(Nc1ccc(C(F)(F)F)cc1[N+](=O)[O-])c1cccnc1` yielded a TGI greater than 100 µM.
Work on `COc1ccc2c(c1)CC[C@@H]1C2CC[C@]2(C)C(=C=CP(=O)(O)O)CCC12` (some centres not stated) yielded a TGI greater than 100 µM.
For `CC[C@@]1(O)C(=O)OCc2c1cc1n(c2=O)Cc2c-1nc1ccccc1c2C=Nc1ccccc1N[C@@H]1c2cc3c(cc2[C@@H](c2cc(OC)c(O)c(OC)c2)[C@H]2C(=O)OC[C@@H]21)OCO3`, the GI50 was 1.52 µM and 0.348 µM and the TGI was greater than 42.5 µM.
In the case of `C=CCNC1=C2C[C@@H](C)C[C@@H](OC)[C@H](OC(=O)CCN(C)C)[C@H](C)/C=C(\C)[C@@H](OC(N)=O)[C@H](OC)/C=C\C=C(/C)C(=O)NC(=CC1=O)C2=O`, the TGI is reported as 21.5 µM.
For `COCC1N=C(c2cc(OC)c(OC)c(OC)c2-c2cc3c(cc2[C@H](C)O)OCO3)O[C@H]1c1ccccc1` (some centres not stated), the TGI was greater than 100 µM.
`Clc1cc2ncn(C3CCCCO3)c2cc1Cl` (configuration not stated) was tested, and the TGI was greater than 100 µM.
Work on `CC(=O)N1c2cc(N=NN(C)C)ccc2NC(=O)CC1C` (configuration not stated) yielded a TGI greater than 100 µM.
In the case of `N#CCC1(n2cc(-c3ncnc4[nH]ccc34)cn2)CN(C2CCN(C(=O)c3ccnc(C(F)(F)F)c3F)CC2)C1`, the GI50 is reported as greater than 100 µM and the TGI is reported as greater than 100 µM.
With `COc1cc2c(cc1OCCCOc1ccc(-c3cc4ccccc4c4ccccc34)cc1)N=C[C@@H]1CCCN1C2=O` the GI50 was 1.42 µM and the TGI was 2.95 µM.
For `O=C1CCS/C(=N/S(=O)(=O)c2ccc(N3N=C4c5ccccc5CC4C3c3cccs3)cc2)N1Cc1ccccc1` (configuration not stated), the GI50 was 12.8 µM and the TGI was 31.2 µM.
For `NC(N)=N/N=C/c1c(-c2ccncc2)nc2sc(Cl)cn12`, the GI50 was 2.32 µM and the TGI was 7.16 µM.
`CC1(C)CC[C@]2(C(=O)O)CC[C@]3(C)C(=CC[C@@H]4[C@@]5(C)C/C(=C/c6ccco6)C(=O)C(C)(C)[C@@H]5CC[C@]43C)[C@@H]2C1` was tested, and the GI50 was 3.31 µM and the TGI was 21.9 µM.
`Cc1ncc(CSC(=N)N)n1Cc1ccccc1` gave a TGI greater than 100 µM.
Work on `Cc1ccc(C2=C(Cl)C(=O)C(c3ccc(C)cc3)=C(Cl)C2=O)cc1` yielded a TGI greater than 100 µM.
`N#CC(NC(=O)CCl)=C(Cl)Cl` gave a GI50 of 1.68 µM and a TGI of 3.15 µM.
`O=CC1=CCC2c3[nH]c4ccccc4c3CCN2C1` (configuration not stated) was tested, and the TGI was 391 µM.
Compound `CC(NNC(=O)c1ccncc1)c1ccc(Cl)cc1Cl` (configuration not stated) has a TGI greater than 100 µM.
`COc1cccc(C2C(C#N)=C(N)Oc3cc4c(cc32)OCO4)c1` (configuration not stated) gave a GI50 of 5.05 µM and a TGI greater than 100 µM.
In the case of `Nc1nc(=S)c2[nH]cnc2[nH]1`, the TGI is reported as > 100 µM and 229 µM and > 250 µM.
`C#Cc1cccc(NC(=O)C2CCCN(C(=O)CCl)C2)c1` (configuration not stated) was tested, and the GI50 was greater than 82.5 µM and the TGI was greater than 82.5 µM.
Compound `CCCCCCCCCCCCCCCC(=O)OCC1OC(n2cc(F)c(=O)[nH]c2=O)C(NC(=O)N(CCCl)N=O)C(O)C1O` (configuration not stated) has a TGI of 15.8 µM.
Compound `CCC1CN2CCc3c([nH]c4ccccc34)[C@@](C(=O)OC)(c3cc4c(cc3OC)N(C)C3C(O)(C(=O)OC)C(C(=O)OC)C5(CC)C=CCN6CCC43C65)C[C@@H](C2)[C@@H]1C(C)(C)C` (some centres not stated) has a TGI greater than 10 µM.
For `COC(=O)[C@@H]1COC(=O)N1`, the TGI was greater than 100 µM.
`COC(=O)C(NC(=O)c1ccccc1)C(c1c(O)cc(O)cc1O)P(=O)(OC)OC` (configuration not stated) was tested, and the TGI was greater than 100 µM.
`O=C(c1ccccc1)C(Br)C(Br)c1ccccc1` (configuration not stated) showed a GI50 of 16.1 µM and a TGI of 30.4 µM.
For `CC(C)=CCCC1(C)C2COC(=O)C21` (configuration not stated), the TGI was greater than 100 µM.
`Cc1cc2c(cc1Cl)Sc1n[nH]c(=O)n1S2(=O)=O` showed a TGI greater than 100 µM.
With `Cc1cc2occ(S(=O)(=O)NC(=O)Nc3ccc(Cl)cc3)c(=O)c2c(=O)o1` the TGI was greater than 100 µM.
